{"source": "the supplement of paper PMC10338343", "note": "± gives the standard deviation. This is a selection; strong and weak results do not stand in their true shares.", "data": [{"system": "MIWI (PIWIL1) piRISC loaded with L1MC piRNA (30 nt)", "assay": "pre-steady-state target cleavage rate (min^-1); MIWI and MILI are mouse PIWI proteins and EfPiwi is from a freshwater sponge; tags in brackets are library labels; higher = faster piRNA-guided slicing of the target", "details": "guide: L1MC piRNA 5'p-UAACUAAAUACUAUGCAAGCUGUAGGUCCU; auxiliary factor: 500 nM mouse GTSF1", "in_short": "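Cleave-'n-Seq: 1 nM active affinity-purified piRISC with one synthetic guide and 0.1 nM transcribed, DNA-blocked target RNA library were mixed, with or without 500 nM GTSF1 partner protein, in HEPES–potassium acetate buffer at 33 °C for 0–8 or 0–960 min. Uncleaved targets were sequenced and normalised to depth and to weakly complementary targets, three trials were pooled, and k3 was capped at 0.0001 min^-1. The pre-steady-state cleavage rate was fitted […].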", "values": [{"sequence": "UCCUGGUAGAGCUUGCAUAGUAUUUACAAA", "pre-steady-state target cleavage rate": "0.0287 ± 0.0094"}, {"sequence": "UCCUGGAUGUGCAUGGAUAGUAUUUAGUUA", "pre-steady-state target cleavage rate": "0.0483 ± 0.008"}, {"sequence": "UCCUGGAUGAGCUUGCAUGUAUUUAGUUA", "pre-steady-state target cleavage rate": "0.00564 ± 0.0034"}, {"sequence": "AGGACCUACAGCUUGCACUAGUAUUUAGUUA", "pre-steady-state target cleavage rate": "0.254 ± 0.088"}, {"sequence": "UCCUGCUACAGCUUGCAUAAGUAUUUAGUUA", "pre-steady-state target cleavage rate": "0.0112 ± 0.0056"}, {"sequence": "UCCUGGUACAGCUUCGUUAGUAUUUAGUAA", "pre-steady-state target cleavage rate": "0.0157 ± 0.0067"}, {"sequence": "UCGACCUACAGCUUGCAUAGUAUAUAGAAA", "pre-steady-state target cleavage rate": "0.391 ± 0.051"}, {"sequence": "UCCUGGAUCAGCAUGCAUAGUAUUUUCAAA", "pre-steady-state target cleavage rate": "0.105 ± 0.025"}, {"sequence": "UCCUGGUACAGCUUGCUAUAGUAUUUAGUUA", "pre-steady-state target cleavage rate": "0.027 ± 0.009"}, {"sequence": "UCCACCUACAGCUUCGUUAGUAUUUAGUUA", "pre-steady-state target cleavage rate": "0.0745 ± 0.011"}, {"sequence": "UCCUGGUACAGCUUGCAUAGUAAAUAGAAA", "pre-steady-state target cleavage rate": "0.131 ± 0.043"}, {"sequence": "UCCUGCUACAGCAACCAUAGUAUUUAGUAA", "pre-steady-state target cleavage rate": "0.172 ± 0.037"}, {"sequence": "UCCUGGAUGUCGUUGCAUAGUAUUUAGGUUA", "pre-steady-state target cleavage rate": "0.00749 ± 0.0034"}, {"sequence": "UCGACCUACAGCUUGCUUAGUAUUUUCAAA", "pre-steady-state target cleavage rate": "0.329 ± 0.048"}, {"sequence": "UCCUCCUACAGCAUGCAUAGUAUUUAGAAA", "pre-steady-state target cleavage rate": "0.485 ± 0.066"}, {"sequence": "UCCUGGUACAGCUUGCAUAGUAAAUUCAAA", "pre-steady-state target cleavage rate": "0.00975 ± 0.0053"}, {"sequence": "UCCUGGAUGUGCUUGCUUAGUAUUUAGAAA", "pre-steady-state target cleavage rate": "0.0155 ± 0.0058"}, {"sequence": "UCCUGGAUGUGCUUGCAUAGUAUAAUGUAA", "pre-steady-state target cleavage rate": "0.00478 ± 0.0038"}, {"sequence": "UCCUGGUACAGCUUGCAUAGUAUAUACAAA", "pre-steady-state target cleavage rate": "0.183 ± 0.043"}, {"sequence": "AGGUGCUACAGCUUGCAUAGUAUUUUCAAA", "pre-steady-state target cleavage rate": "0.162 ± 0.034"}, {"sequence": "UCCUGGAUGUCGAACGUAUCUAUGUUAGUUA", "pre-steady-state target cleavage rate": "< 0.0001"}, {"sequence": "UCCUGGAUGUCCUUGCAUAGUUUUUACUUA", "pre-steady-state target cleavage rate": "0.00583 ± 0.0041"}, {"sequence": "UCCUGGAACAGCUACCAUAGUAUUUAGUAA", "pre-steady-state target cleavage rate": "0.0979 ± 0.017"}, {"sequence": "UCGACCUACAGCUAGCAUAGUAUUUAGAAA", "pre-steady-state target cleavage rate": "0.5 ± 0.045"}]}]}
